Measured values published in PubChem BioAssay AID1240 (Sanford-Burnham Center for Chemical Genomics, 2008).
The campaign covered roughly 50,000 compounds. About 800 (1.6%) showed an effect of 50% or more. The list shows a part of the results.

Target: Bcl-2-like protein 10 (Homo sapiens) (UniProt Q9HD36)
Experiment: Phenotype converters, Bcl-B/TR3 peptide binding displacement, primary biochemical FP (AID 1240);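 note: 0% = Bcl-B with tracer peptide and DMSO and 100% = tracer peptide lacking Bcl-B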
Conditions: GST-Bcl-B / FITC-TR3 peptide fluorescence polarization; stronger effect = higher value; compound at 3.75 mg/L

Sequence of UniProt Q9HD36 (Q9HD36 whole entry, looked up): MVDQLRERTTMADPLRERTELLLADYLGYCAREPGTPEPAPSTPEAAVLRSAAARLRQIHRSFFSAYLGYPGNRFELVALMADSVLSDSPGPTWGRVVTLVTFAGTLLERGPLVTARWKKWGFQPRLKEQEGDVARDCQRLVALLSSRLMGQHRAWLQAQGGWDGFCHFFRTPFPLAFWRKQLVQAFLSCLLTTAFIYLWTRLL

Row | Structure (SMILES) | displacement
1 | COc1ccc(Cl)cc1S(=O)(=O)N1CCC(Cc2ccccc2)CC1 | 10.3%
2 | CCOC(=O)c1sc(NC(=O)/C=C/c2ccc(F)cc2)c(C(=O)OCC)c1C | 10.6%
3 | CC1=C(C(=O)OCCc2ccccc2)C(c2cccc([N+](=O)[O-])c2)C2=C(CCCC2=O)N1 (centres undefined) | 13.4%
4 | Cc1ccc(-c2csc(NC(=O)c3cccc([N+](=O)[O-])c3)n2)cc1 | 3.2%
5 | COCc1cc(C)nc(N/N=C/c2ccc(Cl)cc2Cl)c1C#N | 2.7%
6 | Cc1ccc2nc(Sc3ccccc3)c(C#N)c(=O)n2c1 | 4.5%
7 | COc1cc(C2Nc3ccccc3C(=O)N2c2ccc(C)cc2)cc(OC)c1OC (centres undefined) | -4.5%
8 | NC(=O)NC(c1ccccc1)c1ccc(Br)cc1 (centres undefined) | 2.2%
9 | CCOC(=O)CCNC(=O)/C=C/c1ccco1 | 1.8%
10 | O=[N+]([O-])c1ccccc1S(=O)(=O)Nc1ccc(S(=O)(=O)Nc2nccs2)cc1 | -1.1%
11 | COc1ccc2c(C)c(C)c(=O)oc2c1C | 8.7%
12 | Cc1ccccc1OCCOc1ccccc1/C=c1\sc2nc3ccccc3n2c1=O | 1.7%
13 | COC(=O)c1cc(NC(=O)C(C)Oc2ccc(Cl)cc2C)cc(C(=O)OC)c1 (centres undefined) | -11%
14 | Cc1ccc(Cl)cc1NC(=O)CSc1nnc(SCC(=O)Nc2cc(Cl)ccc2C)s1 | 7.6%
15 | Cn1cnc2cc(Nc3nnc(-c4ccc(Cl)cc4)c4ccccc34)ccc21 | 4.6%
16 | CCC(CC)C(=O)Nc1ccccc1[N+](=O)[O-] | -6.9%
17 | CCN(CC)S(=O)(=O)c1ccc(NC(=O)c2cccc(C)c2)cc1 | -2.1%
18 | CC(C)(C)c1ccc(OCCN2CCCC2)cc1 | 4.2%
19 | O=c1c2ccccc2c(-c2ccccc2)nn1-c1cc([N+](=O)[O-])ccc1N1CCOCC1 | 0.1%
20 | CCOc1ccccc1NC(=O)CN(c1ccc(Oc2ccccc2)cc1)S(C)(=O)=O | 3.2%
21 | O=C(CSc1nc2ccccc2[nH]1)NC1CCCC1 | -7.7%
22 | O=C(Nc1ccc(F)cc1)N1CCc2ccccc2C1 | 0.2%
23 | CCCCOc1ccc(S(=O)(=O)NCc2ccco2)cc1 | 8.4%

Row | Structure (SMILES) | displacement
24 | CC(C)(C)NCCOc1cc(Cl)ccc1Cl | -14.3%
25 | CC(=O)Nc1ccc(C(C)(C)C)cc1[N+](=O)[O-] | -4.8%
26 | CN1C(=O)/C(=C\c2cn(Cc3ccc(Cl)cc3Cl)nc2-c2ccccc2)SC1=S | 6.1%
27 | CCc1cc2c(C)c(CC)c(=O)oc2cc1OC | 3.4%
28 | O=C1NC2=C(C(=O)N(Cc3ccccc3)C2)C(c2ccccc2)N1 (centres undefined) | -11.3%
29 | COC(=O)CN1C(CCN2CCOCC2)=Nc2ccc(Br)cc2C1c1ccccc1 (centres undefined) | -3.8%
30 | Cc1ccc2c(c1)C(c1ccccc1[N+](=O)[O-])CC(=O)N2 (centres undefined) | -3.4%
31 | Brc1ccccc1OCCCOc1cccc2cccnc12 | -4.3%
32 | COc1ccc(OC)c(N2Cc3ccc(OC)c(OC)c3C2=O)c1 | -10.9%
33 | CCCC(=O)N1CCN(c2ccc(F)cc2)CC1 | 6.5%
34 | NC(=O)c1c(NC(=O)c2ccc(Br)cc2)sc2c1CCCCCC2 | 4.7%
35 | CC(C)C(c1ccc(O)cc1)c1ccc(O)cc1 | 9.8%
36 | CNC(=S)N(CCc1ccccc1)C1CC(=O)N(c2ccc(Br)cc2)C1=O (centres undefined) | -4.7%
37 | O=C(Nc1ccc(F)cc1F)c1ccc(Cl)cc1 | -6.4%
38 | Cc1cccc(OCC(=O)N/N=C/c2ccncc2)c1 | 8.9%
39 | N#C/C(=C\c1cc2c(cc1[N+](=O)[O-])OCO2)C(=O)Nc1cccc(Br)c1 | -2.8%
40 | O=C1OC(c2ccc(Br)cc2)=C/C1=C/c1cccs1 | 19.6%
41 | Clc1ccccc1C1Nc2cccc3cccc(c23)N1 | 15.6%
42 | NS(=O)(=O)c1ccc(-c2ccc(/C=C3/SC(=S)N(C4CCCCC4)C3=O)o2)cc1 | 19.1%
43 | CC1=NCCN1S(=O)(=O)c1ccc(Cl)cc1 | 8.9%
44 | Cc1ccc(CNC(=O)Cc2ccc(Br)cc2)cc1 | 12.5%
45 | C=CC(=O)Nc1ccc2c(c1Oc1ccc(C(C)(C)C)cc1)C(=O)c1ccccc1C2=O | 8.9%
46 | CC(=O)Nc1ccc(NC(=O)c2cc(-c3ccccc3)nc3ccccc23)cc1 | 4.9%

Row | Structure (SMILES) | displacement
47 | Cc1ccc(/C(O)=C2/C(=O)C(=O)N(CCCCCC(=O)O)C2c2ccccc2F)cc1 (centres undefined) | -3.3%
48 | O=C1C(=O)N(c2cccc(Br)c2)C(c2ccccc2)/C1=C(/O)c1ccccc1 (centres undefined) | 12%
49 | Brc1ccc2[nH]cc(-c3nnc4ccc5ccccc5n34)c2c1 | -3%
50 | Fc1ccc(-c2cc(-c3ccccc3)nc(-n3cccn3)n2)cc1 | -5.1%
51 | O=C(CCN1C(=O)/C(=C/c2ccccc2)SC1=S)Nc1ncc(Cc2ccccc2Cl)s1 | 8.5%
52 | Cc1ccccc1NC(=O)c1c(NC(=S)Nc2ccccc2)sc2c1CCCCC2 | -17.3%
53 | CCOc1ccc(NC(=S)NC(=O)/C=C/c2ccc(OC)c(OC)c2)c([N+](=O)[O-])c1 | 7.4%
54 | CC1(C)CC(=O)C=C(NCc2ccncc2)C1 | -4.7%
55 | Cc1c(Cl)cccc1N1C(=O)c2ccccc2C1=O | 7.1%
56 | Cc1ccc(-c2nc(N/N=C/c3ccccc3)c3ccccc3n2)cc1 | 6.7%
57 | Cc1ccccc1NC(=O)C(=O)NCCO | 6.2%
58 | CN(C)CCCN1C(=O)CSC1c1ccc(Cl)c(Cl)c1 (centres undefined) | 2.9%
59 | CCOc1cccc2c1N(C(=O)c1ccc(C)cc1)C(C)(C)C(=S)C2=C1SC(C(=O)OC)=C(C(=O)OC)S1 | -1%
60 | CCCOc1ccc(N2C(=O)CC(NCc3ccccc3)C2=O)cc1 (centres undefined) | -5.8%
61 | O=C(COc1ccccc1)NNC(=O)c1ccc(F)cc1 | -12.1%
62 | CS/C(=N\S(=O)(=O)c1ccc(Cl)cc1)c1ccccc1 | 7.3%
63 | O=C(Nc1ncc(Cc2ccc(F)cc2)s1)C1CCCO1 (centres undefined) | 15.4%
64 | COc1ccccc1NC(=O)C1=C(C)NC(=S)NC1c1ccc(Cl)cc1 (centres undefined) | -20.6%
65 | O=C1C=CC(=O)N1Nc1c(Cl)cc(Cl)cc1Cl | 2.6%
66 | COC(=O)N1CCN(c2ccc([N+](=O)[O-])cc2)CC1 | -2.3%
67 | Cc1ccccc1C1=N/C(=C\c2ccc(Br)o2)C(=O)O1 | 13.5%
68 | COC(=O)C1=C(C)N(C)C(=O)/C1=C\c1ccc(C(=O)OC)cc1 | 16.4%
69 | CC1=[N+]([O-])C(C)(C)C(c2cccs2)=[N+]1[O-] | 13.4%

Row | Structure (SMILES) | displacement
70 | Cc1ccc(N2CC(C(=O)Nc3cc(C)ccc3C)CC2=O)cc1 (centres undefined) | 11.9%
71 | Cc1ccc(C(=O)CCNc2ccc3ccccc3c2)o1 | 23.6%
72 | COc1ccc2nnc(-c3ccccc3)n2n1 | 0.8%
73 | O=C(NCc1ccco1)c1cc2c(ccc3ccccc32)oc1=O | 8.9%
74 | CCc1ccc(CN2CCN(C(=O)c3cc(OC)cc(OC)c3)CC2)cc1 | -8.9%
75 | O=C(c1nn2c(c1Cl)NC(c1ccco1)CC2C(F)(F)F)N1CCN(Cc2ccccc2)CC1 (centres undefined) | -0.5%
76 | OC(c1ccccc1)c1ccc2c(c1)OCCCO2 (centres undefined) | 6.7%
77 | Cc1cc(F)ccc1NCc1ccccn1 | 6%
78 | O=C(O)c1ccc(NC2=C(Cl)C(=O)N(c3cccc(Cl)c3)C2=O)cc1 | 13.2%
79 | COc1ccc(N(CC(=O)Nc2cccc(OC)c2)S(=O)(=O)c2ccc(C)cc2)cc1 | 5.1%
80 | C=CCc1cccc2cc(C(=O)NC3CCCCC3)c(=O)oc12 | -1%
81 | COC(=O)c1nc2nc(C)cc(C)n2n1 | -10.7%
82 | CCOc1cccc(-c2cc(C(=O)N3CCc4ccccc43)c3ccccc3n2)c1 | 110%
83 | COc1ccc(N2C(=O)CSC2c2ccc(C)cc2)cc1 (centres undefined) | 2.2%
84 | O=C(/C=C/c1c[nH]c2ccccc12)c1ccc([N+](=O)[O-])cc1 | 5.6%
85 | CCN(CC)c1ccc(C=Nc2ccc(S(N)(=O)=O)cc2)cc1 | 6.6%
86 | CC(=O)OC(OC(C)=O)C12C=CC(O1)C1C(=O)N(c3cc(C(F)(F)F)ccc3Cl)C(=O)C12 (centres undefined) | -13.6%
87 | O=C1NC(=O)N(c2ccc(Cl)cc2)C(=O)/C1=C/c1cccc(Br)c1 | 5.6%
88 | C=CCNC(=S)NNC(=O)COc1cccc(C)c1 | -15.4%
89 | COc1ccccc1/C=C1\SC(=O)N(c2ccc(Cl)cc2)C1=O | -2.6%
90 | CN(C)/C=C1\C(=O)N/C(=C/c2ccc(Br)cc2)C1=O | 7.9%
91 | COCCCNC(=O)COc1ccc(C)cc1Br | -11.2%
92 | CN1CCN(C(=O)c2ccccc2NC(=O)c2ccccc2)CC1 | 3.4%

Row | Structure (SMILES) | displacement
93 | Cc1ccc(O)c(C(=O)CC(=O)c2ccc(Br)cc2)c1 | -26.7%
94 | COc1cccc(NC(=S)NC(NC(=O)c2ccc(Br)cc2)C(Cl)(Cl)Cl)c1 (centres undefined) | 1.1%
95 | CCCC1(O)CC(c2ccccc2)NC(c2ccccc2)C1C (centres undefined) | 4.2%
96 | O=C(CN1C(=O)c2ccccc2C1=O)N1CCN(C(=O)c2ccccc2)CC1 | 11%
97 | OCCNc1nc(-c2ccccc2Cl)nc2ccccc12 | 7.5%
98 | CCCC(=O)NC(c1ccco1)c1c(O)ccc2ccccc12 (centres undefined) | 6.6%
99 | CCOC(=O)C1=NN(C(=O)COc2ccccc2)C(O)(c2ccc(Cl)cc2)C1 (centres undefined) | -16.6%
100 | CC(=O)N1CCN(c2ccc(NC(=O)c3ccccc3)cc2)CC1 | 16.9%
101 | CCC(C(=O)NCc1ccc(OC)cc1)c1ccccc1 (centres undefined) | -1.6%
102 | COc1ccc(OC)c(NS(=O)(=O)c2cccc([N+](=O)[O-])c2)c1 | 2.1%
103 | COc1cc(C)c(CNCc2ccc(OC)c(OC)c2)cc1C | 10.8%
104 | CCc1ccc(C(=O)CC(c2ccccc2)C2CCCCC2=O)cc1 (centres undefined) | -0.9%
105 | COc1ccc(CCNC(=O)c2cccc(Cl)c2)cc1 | -7.3%
106 | O=[N+]([O-])c1ccc(N2CCCC2)c(C(F)(F)F)c1 | 13%
107 | Cc1ccc(NS(=O)(=O)c2cccc([N+](=O)[O-])c2)cc1Cl | -0.2%
108 | Cc1onc(-c2ccccc2Cl)c1C(=O)N1CCN(c2ccc(Cl)cc2[N+](=O)[O-])CC1 | -0.6%
109 | CC(=O)CCc1c(C)c2cccc(C)c2[nH]c1=S | 0.7%
110 | Cc1nc2nc(-c3ccccc3)[nH]c2cc1Br | 2.6%
111 | OCCCc1nc2ccccc2n1Cc1ccc2ccccc2c1 | 8.4%
112 | CC1=[N+]([O-])C(C)(C)C(c2ccc(C)cc2)=[N+]1[O-] | 12.9%
113 | CC1=C(C(=O)OC2CCCCC2)C(c2ccncc2)C2=C(CCCC2=O)N1 (centres undefined) | -4.5%
114 | O=C(Nc1ccc(-c2nc3ccccc3s2)c(O)c1)c1ccc(Cl)cc1Cl | -0.6%
